The supplement of paper PMC8813932
Where a name gives a salt, the structure may show the parent alone. ± gives the standard deviation of the averaged measurements. The list shows a part of the results. Most values come without repeats; read them as rough.

Legend:
Test in all cases: log2 surviving fraction relative to plate median (drug vs vehicle, or drug+dl922-947 vs dl922-947 alone); ovarian cancer lines: OVCAR4 is platinum-sensitive while Ov4Cis resists cisplatin and Ov4Carbo carboplatin; higher = more cell survival
Conditions in all cases: compound concentration: 10 uM, 192 h
OVCAR4 = tested on: OVCAR4
Ov4Carbo = tested on: Ov4Carbo
Ov4Cis = tested on: Ov4Cis
[1] = dl922-947 oncolytic adenovirus co-treatment: MOI 10
[2] = dl922-947 oncolytic adenovirus co-treatment: none

SMILES	log2 surviving fraction (OVCAR4; [1])	log2 surviving fraction (OVCAR4; [2])	log2 surviving fraction (Ov4Carbo; [1])	log2 surviving fraction (Ov4Carbo; [2])	log2 surviving fraction (Ov4Cis; [1])	log2 surviving fraction (Ov4Cis; [2])
CC(=O)[C@@]1(O)CC[C@H]2[C@@H]3CCC4=CC(=O)CCC4=C3[C@@H](c3ccc(N(C)C)cc3)C[C@@]21C [Ulipristal]	0.519 ± 0.53	-1.2 ± 0.092	-0.424	-1.84	-0.351	0.143
NC(CO)C(=O)NNCc1ccc(O)c(O)c1O (stereo unspecified) [Benserazide]	1.03 ± 0.32	1.34 ± 0.41	0.527	1.02	0.853	-0.339
CN(CCOc1ccc(NS(C)(=O)=O)cc1)CCc1ccc(NS(C)(=O)=O)cc1 [Dofetilide (Tikosyn)]	-0.264 ± 1.1	0.65 ± 0.035	0.136	-0.577	-0.423	0.763
CN1CCCCC1CCN1c2ccccc2Sc2ccc([S+](C)[O-])cc21 (stereo unspecified) [Mesoridazine Besylate]	-0.432 ± 0.07	0.246 ± 0.32	-0.549	-0.216	-1.14	-0.0346
CC(C)c1c(C(=O)Nc2ccccc2)c(-c2ccccc2)c(-c2ccc(F)cc2)n1CC[C@@H](O)C[C@@H](O)CC(=O)O [Atorvastatin calcium (Lipitor)]	0.11 ± 0.022	-2.24 ± 0.58	-1.89	-3.24	-0.544	-1.42
CC(C)NCC(O)c1cc(O)cc(O)c1 (stereo unspecified) [Metaproterenol Sulfate]	-0.125 ± 0.22	0.00689 ± 0.091	-0.55	-0.0733	-2.22	0.202
C[C@@H](CN1CC(=O)NC(=O)C1)N1CC(=O)NC(=O)C1 [Dexrazoxane Hydrochloride]	-0.118 ± 0.22	2.93 ± 3.4	0.896	0.654	0.289	0.144
CC(=O)[C@H]1CC[C@H]2[C@@H]3CCC4=CC(=O)CC[C@]4(C)[C@H]3CC[C@]12C [Progesterone (Prometrium)]	-0.345 ± 0.93	-1.34 ± 0.99	0.589	-0.0771	-0.174	-0.22
C[C@]12CC[C@@H]3c4ccc(O)cc4C[C@@H](CCCCCCCCC[S+]([O-])CCCC(F)(F)C(F)(F)F)[C@H]3[C@@H]1CC[C@@H]2O (stereo partly specified) [Fulvestrant (Faslodex)]	0.186 ± 0.69	1.62 ± 1.7	-1.37	0.344	0.16	-0.0214
O=C(O)c1cccnc1 [Niacin (Nicotinic acid)]	-1.432 ± 0.0063	-0.104 ± 0.39	1.5	1.03	-0.271	-0.24
COC(=O)N[C@H](C(=O)N[C@@H](Cc1ccccc1)[C@@H](O)CN(Cc1ccc(-c2ccccn2)cc1)NC(=O)[C@@H](NC(=O)OC)C(C)(C)C)C(C)(C)C [Atazanavir sulfate]	0.041 ± 0.91	-0.565 ± 0.21	-1.51	-1.72	-0.973	0.731
CCOC(=O)c1ccc(C#Cc2ccc3c(c2)C(C)(C)CCS3)nc1 [Tazarotene (Avage)]	-0.0307 ± 0.16	0.382 ± 0.023	-0.304	0.674	0.0622	0.393
CC(=O)[C@H]1CC[C@H]2[C@@H]3CC=C4C[C@@H](O)CC[C@]4(C)[C@H]3CC[C@]12C [Pregnenolone]	0.904 ± 0.32	0.693 ± 0.55	-0.0653	0.356	1.27	1.14
O=C(O)[C@H](CC(=O)N1C[C@H]2CCCC[C@H]2C1)Cc1ccccc1 [Mitiglinide calcium]	0.851 ± 0.71	0.687 ± 0.76	-0.357	-0.104	-0.102	1.07
CC(/C=C1\SC(=S)N(CC(=O)O)C1=O)=C\c1ccccc1 [Epalrestat]	-0.206 ± 0.4	-0.0615 ± 0.7	0.639	0.032	0.479	0.308
CCCCc1oc2ccc(NS(C)(=O)=O)cc2c1C(=O)c1ccc(OCCCN(CCCC)CCCC)cc1 [Dronedarone HCl (Multaq)]	-8.69 ± 0.11	-9.61 ± 4.5	-7.53	-10.7	-8.16	-12.8
O=C(O)c1cc(=O)c2ccccc2o1 [Chromocarb]	-0.834 ± 0.073	0.142 ± 1.1	-0.403	0.168	-1.13	-0.799
CN1c2ccccc2C(NCCCCCCC(=O)O)c2ccc(Cl)cc2S1(=O)=O (stereo unspecified) [Tianeptine sodium]	1.13 ± 1.1	0.184 ± 0.73	1.15	0.266	1.36	1.2
CN(C)C(=O)C(CCN1CCC(O)(c2ccc(Cl)cc2)CC1)(c1ccccc1)c1ccccc1 [Loperamide hydrochloride]	-3.34 ± 2.6	-3.76 ± 0.22	-4.84	-7.27	-4.62	-4.89
CN1CCN(CCCN2c3ccccc3Sc3ccc(C(F)(F)F)cc32)CC1 [Trifluoperazine 2HCl]	-4.47 ± 1.6	-1.76 ± 0.03	-5.52	-3.69	-4.5	-3.93
CCOC(=O)CCC(=O)O[C@H]1[C@H](O[C@@H]2[C@@H](C)[C@H](O[C@H]3C[C@@](C)(OC)[C@@H](O)[C@H](C)O3)[C@@H](C)C(=O)O[C@H](CC)[C@@](C)(O)[C@H](O)[C@@H](C)C(=O)[C@H](C)C[C@@]2(C)O)O[C@H](C)C[C@@H]1N(C)C [Erythromycin Ethylsuccinate]	-0.264 ± 0.74	-0.267 ± 0.46	0.0655	-0.0919	-0.469	-0.258
